The results in this text go back to PubChem BioAssay AID463173 (ICCB-Longwood Screening Facility, Harvard Medical School, 2010).

In all, about 52,000 compounds went through this assay and about 1,700 (3.3%) were called active. Cut-off read from the data, not from the text of the source: active = survival mostly below about 52% (no sharp cut-off); inactive = mostly above about 56%. Some of the results follow.

The assay deals with Wild type. The experiment in a line: growth inhibition of S. aureus wild type versus tarO mutant, primary screen, teichoic acid synthesis inhibitors, RN4220, OD600 (AID 463173). To be noted: S. aureus RN4220 wild type/DeltatarO growth, OD600, 18 h, active compounds read low, screened at 18.75 µg/mL (by protocol).
Regarding `CCOc1cc(C(=O)N2CCc3c([nH]c4ccccc34)C2c2ccccc2)cc(OCC)c1OCC` (stereo not drawn), the survival was inactive: 77%.
As for `O=c1onc(-c2ccc(Cl)cc2)n1Cc1ccc(F)cc1`, the survival is inactive: 109%.
On to `CCOC(=O)c1sc2ncn(CC(=O)Nc3ccc(C)cc3Br)c(=O)c2c1C`, for which the survival was inactive: 84%.
For `O=C(CCCN1C(=O)c2ccccc2C1=O)N1CCCCC1` the value was inactive: 109%; for `COc1ccccc1-n1c(/C=C/c2c(C)n(C)c3ccccc23)nc2ccccc2c1=O`, inactive: 108%; for `CCOc1ccc(OCC(=O)Nc2nnc3n2CCS3)cc1`, inactive: 76%.
For `CCc1ccc(Sc2cc(C(=O)NC(C)CC)c3ccccc3n2)cc1` (stereo not drawn) the value was inactive: 65%; for `COc1ccc(-c2noc(CSc3nnc(-c4ccncc4)n3-c3ccc(C)cc3)n2)cc1`, inactive: 84%.
With `CCOc1ccc(Sc2cc(C(=O)NCCc3ccccc3)c3ccccc3n2)cc1` the figure was inactive: 72%.
For the molecule `CN(Cc1ccccc1)C(=O)c1ccco1`, the survival was inactive: 110%.
With `COc1cccc(CNC(=O)C2CCC(CNS(=O)(=O)c3ccc(Br)s3)CC2)c1` (stereo not drawn) the figure was inactive: 83%; with `CCOC(=O)C(Cc1c[nH]c2ccccc12)NC(=O)COc1ccc(Cl)c(C)c1` (stereo not drawn), active: 8%; with `CCOc1nc(NC(=O)NS(=O)(=O)Oc2ccccc2)nc(-c2ccccc2)n1`, inactive: 74%.
For `O=S(=O)(c1ccc2c(c1)CCN2)N1CCCCCC1` the value was inactive: 75%; for `Cc1ccc2c(c1)c1c(c(=O)n(Cc3ccccc3)c(=O)n1CC(=O)NCc1ccccc1Cl)n2C`, inactive: 73%; for `CN(C(=O)CN1C(=O)CCSc2ccc(S(=O)(=O)N3CCCC3)cc21)c1ccccc1`, inactive: 71%.
For `CCc1ccc(NCc2cc3cc(OC)c(OC)cc3n(CC(=O)Nc3cc(C)ccc3C)c2=O)cc1` the value was inactive: 63%; for `COc1ccc(S(=O)(=O)N(CC(=O)NCc2ccccc2)c2ccc(C)cc2)cc1OC`, inactive: 87%.
Consider `CCC(C)OC(=O)/C(C#N)=C\c1ccc(-c2cccc(C(F)(F)F)c2)o1` (stereo not drawn), for which the survival was inactive: 78%.
On to `Cc1cccc(C)c1Nc1nc2ccccc2nc1NS(=O)(=O)c1ccccc1`, for which the survival was inactive: 84%.
With `O=C(Cn1c(=O)nc(-c2ccccc2)c2ccccc21)NCc1ccc(F)cc1` the figure was inactive: 68%.
In the case of `CCOC(=O)c1cc(=O)n2[nH]c(-c3ccc(Br)cc3)cc2n1`, the survival was inactive: 106%.
For `COc1ccc(-c2noc(CN(C(C)C)S(=O)(=O)c3ccc(Br)cc3)n2)cc1` the value was inactive: 81%.
For `CC1=C(C(=O)N2CCN(c3cccc(C)c3C)CC2)C2(CCCCC2)OC1=O` the value was inactive: 91%.
In the case of `Cc1cc(O)c(C(c2ccccc2)N2CCN(C)CC2)c(=O)n1Cc1ccco1` (stereo not drawn), the survival was inactive: 121%.
For `C=Cc1ccc(CN2C(=O)c3ccccc3Sc3ccc(C(=O)OCc4ccco4)cc32)cc1` the value was inactive: 70%; for `O=C(Nc1ccccc1)N(Cc1ccc(F)cc1)c1ccccn1`, inactive: 84%; for `CCOC(=O)c1c(C)[nH]c(C)c1S(=O)(=O)NCC(=O)N1CCN(c2cccc(C)c2)C(C)C1` (stereo not drawn), inactive: 120%.
In the case of `Cc1cccc(NC2=CC(c3cccc(Br)c3)N(c3cccc(C)c3)C2=O)c1` (stereo not drawn), the survival is inactive: 118%.
Consider `Cc1nc2ccc(S(=O)(=O)NC(CC(C)C)C(=O)N3CCN(c4ccc(F)cc4)CC3)cc2s1` (stereo not drawn), for which the survival is inactive: 84%.
With `O=C1CCC(=O)N1CC(=O)N1CCCc2ccccc21` the figure was inactive: 113%.
For `Cc1ccc(CNC(=O)c2c(O)nc3c(C)cccn3c2=O)cc1` the value was inactive: 85%.
With `Cc1ccc(C)c2[nH]c(=O)c(CN(Cc3ccco3)Cc3nnnn3C(C)(C)C)cc12`, the survival was inactive: 105%.
For `CCN(CC)CCCNC(=O)c1ccc2c(c1)NC(=O)C(CS(=O)(=O)Cc1cccc(Br)c1)N2` (stereo not drawn), the survival was inactive: 121%.
With `CN(C)c1ccc(CNS(=O)(=O)c2ccc3[nH]c4c(c3c2)CCCCC4)cc1` the figure was inactive: 71%; with `CC1Oc2ccccc2N(CC(=O)NC2CCCC2)C1=O` (stereo not drawn), inactive: 97%; with `COc1ccc(Br)cc1CNC(=O)c1nn(-c2ccc(C)cc2)c(=O)c2c1c1ccccc1n2C`, inactive: 126%.
With `Cc1ccccc1-c1noc(-c2cccnc2N(C)Cc2ccc(Cl)cc2)n1` the figure was inactive: 99%; with `O=C(c1ccccc1)N(Cc1ccc2c(c1)OCO2)Cc1nc2ccccc2c(=O)[nH]1`, inactive: 109%; with `CCOC(=O)c1ccc(NC(=O)c2csnn2)cc1`, inactive: 109%.
With `CCOC(=O)c1cccc(NC(=O)CCC(=O)N2CC(C)Oc3ccc(C)cc32)c1` (stereo not drawn) the figure was inactive: 81%; with `O=C(C1CC1)N1CCN(c2nc3c(Cl)cccc3s2)CC1`, inactive: 73%.
`Fc1ccc(Cc2cn3cc(-c4ccccc4)nc3s2)cc1`: the survival was inactive: 69%.
With `COc1ccc(CCNC(=O)CSc2nnnn2-c2cccc(C(C)=O)c2)cc1OC` the figure was inactive: 79%; with `CC1CCN(S(=O)(=O)c2ccc3c(c2)N(CC(=O)NC(C)C)C(=O)CO3)CC1`, inactive: 81%; with `Cc1ccc(-c2nnc(Nc3ccc(Cl)c(Cl)c3)c3ccccc23)cc1S(=O)(=O)NCCO`, inactive: 136%.
For `COc1cccc(CNC(=O)CSc2ncc(S(=O)(=O)c3ccc(Br)cc3)c(=O)[nH]2)c1` the value was inactive: 68%; for `CC1CCN(S(=O)(=O)c2ccc3c(c2)CCN3C(=O)Nc2ccc(Br)cc2)CC1`, inactive: 82%; for `Cc1ccccc1C(=O)N1CCN(CCc2ccccn2)CC1`, inactive: 83%.
For the molecule `COc1ccc(CNC(=O)c2ccc3c(c2)CCN3S(=O)(=O)c2ccc(C)cc2)cc1`, the survival was inactive: 99%.
For `C=CCC(C)(NCc1ccccc1)c1ccco1` (stereo not drawn) the value was inactive: 104%; for `Cc1ccc(NC(=O)C2CCCN2S(=O)(=O)c2cccc3nsnc23)cc1Cl` (stereo not drawn), inactive: 67%; for `COc1ccc(CNC(=O)CSc2ncc(S(=O)(=O)c3ccc(C)c(Cl)c3)c(=O)[nH]2)cc1`, inactive: 69%.
On to `Cc1c(C(=O)Nc2ccc(C(C)C)cc2)sc2nc[nH]c(=O)c12`, for which the survival is inactive: 73%.
With `O=C1c2cccc3c(N4CCNCC4)ccc(c23)C(=O)N1c1ccc(Cl)cc1` the figure was inactive: 103%; with `COc1ccc(C)cc1NC(=O)CSc1ccc(-c2ccccn2)nn1`, inactive: 81%; with `COc1ccc(CNC(=O)C2CCCN2)cc1OC` (stereo not drawn), inactive: 102%.
With `Cn1c(SCC(=O)c2ccc(F)cc2)nnc1-c1ccccc1Br` the figure was inactive: 74%.
